# Results as given in PubChem BioAssay AID652104 (National Center for Advancing Translational Sciences (NCATS), 2013).
# The whole screen tested about 410,000 compounds, of which about 7,200 (1.8%) were called active. The shares of active, inactive and inconclusive entries below differ from those in the screen. The call rests on the fitted dose curve; in most records, active means well fitted activation curve with a large enough effect; inconclusive means small, poorly fitted or top-dose-only effect, or another doubt; inactive means no such curve, though single readings can be large or run the other way. No potency is given beside an inconclusive call; the fits are too rough.
# Experiment: qHTS of TDP-43 Inhibitors; further: nearly all actives have a fitted effect of over 50% in size; on growth rescue (activation): % of control where 0% means no effect
# Conditions: TDP-43 expressing yeast growth rescue, BacTiter-Glo, 24 h; growth rescue (activation): at 46.1 µM (top of the series) unless noted
# Outline: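 Luminescence from BacTiter-Glo reports growth of TDP-43-expressing yeast after 24 hr at 30 deg C with compound. Cells were raffinose-pregrown to mid-log, then seeded in galactose medium at OD600=0.02.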
# Potency means the concentration at half of the fitted maximal effect; tags describe the fitted curve by direction and shape.
SMILES,Potency,growth rescue (activation)
O=C(Nc1cc(Cl)ccc1-n1cncn1)c1cc(F)c(F)c(F)c1F,active: 22.4 µM,
CC(=NNC(=S)N1CCN(C2CCCCCC2)CC1)c1ccccn1,"inconclusive [activator, single point]",
N#C/C(=C\c1ccc(Cl)c([N+](=O)[O-])c1)c1ccccn1,"inconclusive [activator, single point]",
Cc1ccc(C)c(NC(=O)Cn2cc(S(=O)(=O)N3CCCC3)c(S(=O)(=O)N3CCCC3)c2)c1,inactive,
COc1ccc(N2CCN(C(=O)CCc3ccc(S(=O)(=O)NCC(C)C)cc3)CC2)cc1,"inconclusive [activator, partial curve, poor fit]",
COc1ccc(NC(=O)c2ncoc2-c2ccco2)cc1Cl,inactive,
CN1C(=S)N(c2cccnc2)C(=O)/C1=C\c1ccc(C(C)(C)C)cc1,active: 15.8 µM,
CN(C)/C=C/C(=O)c1ccc(S(=O)c2ccccc2)cc1 (stereo not drawn),"inconclusive [activator, single point]",
O=C(NCCc1ccc(C(F)(F)F)cc1)C1COc2ccccc2O1 (stereo not drawn),"inconclusive [activator, partial curve]",
N#Cc1nc(COc2ccc(-c3ccccc3)cc2)oc1NCc1cccnc1,"inconclusive [activator, single point]",
Cc1ccc(OCC(=O)NC(=S)Nc2ccccn2)c(Br)c1,inactive,
O=C(COc1ccccc1)NCC(=O)N/N=C/c1cc(Br)ccc1OCc1ccccc1,inactive,
Cc1ccc(C)c(Nc2nn3c(=O)c4ccc(C(=O)N(C)Cc5ccccc5)cc4nc3s2)c1,"inconclusive [activator, partial curve, poor fit]",
CCC1(C)Cc2ccccc2-c2nc(-c3ccccc3)oc(=O)c21 (stereo not drawn),"inconclusive [activator, full curve, poor fit]",
Cc1ccccc1C(=O)Nc1cccc(C(=O)OCc2cc(=O)n3c(C)csc3n2)c1,"inconclusive [activator, partial curve]",
Cc1cccc(-c2nc(CS(=O)CC(=O)NC3CCCC3)c(C)o2)c1 (stereo not drawn),"inconclusive [activator, full curve, poor fit]",
CCOC(=O)C1=C(NC(=S)NC(=O)c2ccccc2)c2ccccc2CC1(C)CC (stereo not drawn),"inconclusive [activator, partial curve]",
C=CCNc1nc(-c2ccccc2)nc(-n2ccnc2)n1,"inconclusive [activator, partial curve]",
O=c1c2ccccc2nc(-c2ccc([N+](=O)[O-])cc2)n1O,,inactive: -57.9% [at 9.22 µM]
Cc1nn(Cc2ccccc2Cl)c2sc(C(=O)Nc3nccs3)cc12,inactive,
CCCN(CC(=O)Nc1ccccc1C)C(=O)COc1c(C)cccc1C,"inconclusive [activator, partial curve, poor fit]",
OC(c1ccccc1)c1nc(-c2cncnc2)cs1 (stereo not drawn),"inconclusive [activator, full curve, poor fit]",
CCC1(C)Cc2c(sc3nc4n(c(=O)c23)CCS4)CO1 (stereo not drawn),"inconclusive [activator, single point]",

SMILES,Potency,growth rescue (activation)
Brc1ccccc1-c1nnc(-c2cccnc2)o1,active: 15.8 µM,
C#CCSc1nnc(-c2ccc(OC)cc2)o1,"inconclusive [activator, partial curve]",
COc1ccc2c(c1)OC[C@H]1[C@H]2N2C(=O)CN(CCc3c[nH]c4ccccc34)C(=O)[C@@]2(C)[C@H]1c1ccccc1,inactive,
Cc1nn(-c2ccccc2)c(N)c1-c1ccccc1,"inconclusive [activator, partial curve]",
Fc1ccc(-c2nc3ccc(Br)cn3c2Cc2ccccc2)cc1,active: 35.5 µM,
CC1CCCCN1C(=O)c1ccc(C(=O)c2ccccc2)cc1 (stereo not drawn),"inconclusive [activator, partial curve]",
CCOc1ccc(Cl)cc1-c1cc(C(=O)NCc2cccs2)[nH]n1,"inconclusive [activator, single point]",
CCCCCCC(=O)N1C/C=C\C(c2ccc(OC)cc2)N(Cc2ccc(F)cc2)C(=O)C1 (stereo not drawn),active: 28.2 µM,
CC(C)CCn1c(=O)c2ccccc2n2c(=S)[nH]nc12,"inconclusive [activator, single point]",
O=C(c1cccc(S(=O)(=O)N2CCc3ccccc32)c1)N1CCc2ccccc2C1,"inconclusive [activator, partial curve]",
CCOP(=O)(c1ccccc1)c1nc(-c2ccccc2Cl)oc1N1CCCCC1 (stereo not drawn),"inconclusive [activator, single point]",
CCC(C)NC(=O)NC1C(NC(=O)NC(C)CC)N(C)C(=O)N1C (stereo not drawn),inactive,
Cc1cccc(CN2C(=O)NC(c3ccccc3)(c3ccccc3)C2=O)c1,"inconclusive [activator, single point]",
CCCc1cc(=O)[nH]c(SCC(=O)Nc2ccc(Br)cc2Br)n1,"inconclusive [activator, partial curve, poor fit]",
CCOc1cccc(NC(=O)C2CC(=O)N(C)C(=Nc3cccc(F)c3)S2)c1 (stereo not drawn),"inconclusive [activator, single point]",
CCOc1ccc(NC(=S)NCCCc2ccccc2)cc1,"inconclusive [activator, partial curve]",
Cc1cccc(-c2nc(C)c(CCNC(=O)C(=O)Nc3c(C)cc(C)cc3C)s2)c1,inactive,
Cc1ccc2cccc(NC(=S)NC(=O)c3ccccc3)c2n1,"inconclusive [activator, single point]",
Cc1ccc(NC(=O)C2CCCN2S(=O)(=O)c2cccc3nsnc23)c(Br)c1 (stereo not drawn),active: 20 µM,
O=C(O)CCc1ccc(-c2ccccc2)o1,"inconclusive [activator, single point]",
Cc1c(C)c2cc(Cl)c(OCC(=O)NCCCn3ccnc3)cc2oc1=O,"inconclusive [activator, partial curve, poor fit]",
COC(C(=O)Nc1cccc([N+](=O)[O-])c1)c1ccccc1 (stereo not drawn),"inconclusive [activator, single point]",
O=C(OCC(=O)N1CCN(c2ccccc2)CC1)c1cc(Cl)ccc1[N+](=O)[O-],"inconclusive [activator, partial curve, poor fit]",

SMILES,Potency,growth rescue (activation)
Fc1ccc(-c2cn3cc(C(F)(F)F)cc(Cl)c3n2)cc1,"inconclusive [activator, partial curve]",
CCOc1ccc(C(=O)C(C)OC(=O)c2nc(Cl)ccc2Cl)cc1 (stereo not drawn),,inconclusive: 32.3% [activator]
CCc1cccc(NC(=O)CN(C)S(=O)(=O)c2ccc3c(c2)n(C)c(=O)c(=O)n3C)c1,inactive,
CCCCn1c(=O)c2ccccc2n2c(=S)[nH]nc12,"inconclusive [activator, single point]",
O=[N+]([O-])c1ccc(Nc2ccc(F)cc2)cc1,"inconclusive [activator, partial curve]",
COc1cccc(/C=C2\Sc3ccc(C(=O)NCC4CCCO4)cc3N(C)C2=O)c1 (stereo not drawn),"inconclusive [activator, single point]",
CCC(C)NC(=O)c1ccc(COc2ccccc2Cl)cc1 (stereo not drawn),"inconclusive [activator, full curve, poor fit]",
Cc1ccccc1NC1=C(Cl)C(=O)OC1OC(C)C (stereo not drawn),"inconclusive [activator, single point]",
Cc1ccc(Nc2nc(CSc3nnnn3-c3ccccc3)cs2)cc1,active: 14.1 µM,
Cc1ccc(-c2nnc(Nc3ccc(O)cc3)c3ccccc23)cc1S(=O)(=O)NC(C)(C)CO,inactive,
COCCN(CC(=O)Nc1cccc(C)c1C)C(=O)c1cc2c(s1)CCC2,"inconclusive [activator, single point]",
COc1ccccc1N1CCN(C(=O)c2ccc3noc(-c4ccccc4)c3c2)CC1,"inconclusive [activator, single point]",
Cc1cccc(CSc2nc3nc(C)cc(C)n3n2)c1,"inconclusive [activator, single point]",
Cc1ccc(C(=O)OCC(=O)NC2CCCC(C)C2C)s1 (stereo not drawn),"inconclusive [activator, full curve]",
O=C(O)c1ccc(N/N=C/c2ccc(C(F)(F)F)cc2)cc1,inactive,
COc1cccc(NC(=O)C2(C)CCN2C(=O)CCc2ccc(Cl)cc2Cl)c1 (stereo not drawn),"inconclusive [activator, single point]",
COc1ccc2nc(NC(=O)c3nc(S(=O)(=O)Cc4ccc(C)cc4)ncc3Cl)sc2c1,"inconclusive [activator, full curve]",
C/C(=N\OC(=O)NC1CCCCC1)c1sc(-c2ccccc2)nc1C,active: 20 µM,
COc1ccc(/C=C(/C(=O)NCc2ccccc2)c2ccccc2)cc1,"inconclusive [activator, single point]",
COc1ccc(Nc2cc(C)c3cc(NC(=O)COc4cccc(C)c4)ccc3n2)cc1,"inconclusive [activator, partial curve]",
CC(=O)c1ccc(OCC(C)Oc2ccc(C#N)cc2)cc1 (stereo not drawn),"inconclusive [activator, partial curve]",
CC1CCN(S(=O)(=O)c2ccc3c(c2)N(CC(=O)NC(C)(C)C)C(=O)CS3)CC1,inactive,
